Source: PubChem BioAssay AID662 (National Center for Advancing Translational Sciences (NCATS), 2007)
Hit rate of the full screen: of about 71,000 compounds, about 1,800 (2.5%) were called active. The inconclusive results got no clear call from the source; some entries with a clear call stand among them for comparison. Calls follow the shape of the dose curve; as a rule, active = well fitted activation curve with a large enough effect in the signal ratio, with a control signal flat (not every such curve was filed as active); inconclusive = small, poorly fitted or top-dose-only effect, or effect the other way, or a change in a side signal; inactive = flat fitted curve, though single readings scatter; the % refers to the signal ratio. Potencies beside an inconclusive call are fits to weak or partial responses and may not hold up.

Experiment: Cell signaling CRE-BLA (Fsk stim); as to activity change, negative = inhibition: % of control where 0% means no effect
Settings: CHO CRE-bla reporter (cAMP response element driving beta-lactamase), forskolin EC10, beta-lactamase ratio; activity change, negative = inhibition: at 38.2 µM (top of the series) unless noted
Method in brief: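 Modulation of forskolin-driven signalling is measured in CHO cells carrying a CRE-controlled beta-lactamase reporter. Cells are stimulated with EC10 NKH 477 in the presence of titrated compound for 3 h at 37 °C, then loaded with CCF4 for 2 h at room temperature.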
Potency is read from the fitted curve at half-maximal effect; tags tell the direction and shape of the fitted curve.

| SMILES | activity change, negative = inhibition | Potency |
| --- | --- | --- |
| O=C(Cn1nnc(-c2ccccc2F)n1)Nc1cccc2ncccc12 | inconclusive: 6.15% |  |
| O=C(Nc1ccccc1C(=O)OCC(=O)N1CCc2ccccc2C1)c1ccco1 | inconclusive: 18.1% |  |
| CC(=O)Nc1ccc(S(=O)(=O)N(C)S(=O)(=O)c2ccc(F)cc2)cc1 | inactive |  |
| CN1CCN(C2=C(Cl)C(=O)N(c3ccc(Cl)c(Cl)c3)C2=O)CC1 | inconclusive: -27.8% |  |
| O=C(Cn1nnc(-c2ccccc2NC(=O)C2CC2)n1)NC1CCCCC1 | inconclusive: 2.4% |  |
| CCOc1ccc(OCC)c(Nc2cc(C)nc3ncnn23)c1 |  | inconclusive: 12.6 µM [rising, single point] |
| COC(=O)CSc1ccc2c(N)c(C(=O)OC)sc2c1 | inactive |  |
| CCC(C)NC(=O)Cn1c(=O)n(-c2ccccc2)c(=O)c2ccc(C(=O)NCc3ccco3)cc21 (centres undefined) | inconclusive: -6.11% |  |
| O=C(CN1CCN(Cc2ccccc2)CC1)c1c[nH]c2ccccc12 | inconclusive: -7.12% |  |
| COc1nc(NCc2ccc(Cl)cc2)nc(OC)n1 | inconclusive: 18.8% [at 7.6 µM] |  |
| CCOC(=O)c1sc2c(c1C)C(c1cccs1)C1=C(CCCC1=O)N2 (centres undefined) |  | inconclusive: 12.6 µM [rising, partial curve] |
| CCOC(=O)Cc1c(C)nc2c(-c3cccc(Br)c3)c[nH]n2c1=O | inactive |  |
| COCCCN1C(=O)C(O)=C(C(=O)c2ccco2)C1c1ccccc1 (centres undefined) |  | inconclusive: 3.16 µM [falling, partial curve] |
| C=C(C)CSc1nc2c(cc1C#N)CCC2 | inactive |  |
| CCc1c(C)nc2ncnn2c1N1CCC(C(=O)Nc2cccc(C(C)=O)c2)CC1 | inactive |  |
| O=c1c(-c2ccccc2)c(O)c2cccc3c2n1CCC3 | inactive |  |
| CCN(CC)CCSc1nc(O)c(C(C)C)c(=O)[nH]1 | inconclusive: -2.78% |  |
| C=CCn1c(C(C)NC(=O)COC)nc2ccccc21 (centres undefined) | inactive |  |
| CCN1CCN(c2nc(SC)nc3sc4c(c23)CC(C)(C)OC4)CC1 | inconclusive: -0.86% |  |
| O=C(Cn1c(=O)oc2ccccc21)c1ccccc1 |  | inconclusive: 3.98 µM [falling, single point] |
| CC(C)Cn1cc(C(=O)NCC2CCCO2)c2c3ccccc3n(C)c2c1=O (centres undefined) | inactive |  |

| SMILES | activity change, negative = inhibition | Potency |
| --- | --- | --- |
| COc1cccc(NC(=O)N(Cc2cc3cc(C)cc(C)c3[nH]c2=O)CC2COCCO2)c1 (centres undefined) |  | inconclusive: 25.1 µM [rising, single point] |
| COc1ccc(-c2c(C)nn3c(N4CCC(C(=O)N5CCCCC5)CC4)cc(C)nc23)cc1OC |  | inconclusive: 2 µM [rising, single point] |
| O=C(NCCc1ccc(Cl)cc1)C1CCN(C(=O)c2sccc2-n2cccc2)CC1 | inactive |  |
| C=CCNc1nc(NC(C)(C)CO)nc(OCC)n1 | inactive |  |
| Cc1ccccc1-c1nc(CS(=O)CC(=O)NCCN2CCN(Cc3ccccc3)CC2)c(C)o1 (centres undefined) | inconclusive: -43.7% |  |
| CC(C)N(Cc1nc(-c2ccc(Cl)cc2)no1)C(=O)c1cccs1 | inactive |  |
| Cc1cccc(C(=O)Nc2ccccc2C(=O)OCc2c(C)noc2C)c1 |  | inconclusive: 12.6 µM [rising, single point] |
| CN(Cc1cc(C(C)(C)C)cc(Br)c1O)Cc1cc(C(C)(C)C)cc(Br)c1O | inactive: 23.6% [at 7.6 µM] |  |
| CCOc1cc(S(=O)(=O)N2CC=C(c3ccc(F)cc3)CC2)c(OCC)cc1-n1cnnn1 | inactive |  |
| CC1(C)C(=O)N(CCN2CCC(C(=O)c3ccc(F)cc3)CC2)c2ccccc21 | inactive |  |
| Nc1nc(CN2CCN(c3cccc(Cl)c3)CC2)nc(N2CCCc3ccccc32)n1 | inconclusive: -25.9% |  |
| CCNc1nc(OCCNS(=O)(=O)c2cc(C)ccc2C)nc(N(C)C)n1 |  | inconclusive: 10 µM [rising, single point] |
| Cc1ccc2nc(CSc3nnc(-c4ccco4)n3-c3ccccc3)cc(=O)n2c1 |  | active: 5.01 µM |
| COc1cccc(/C=N/n2c(SC)nnc2-c2ccccc2)c1OC | inconclusive: 25.5% |  |
| CCN(CC)S(=O)(=O)c1cccc(C(=O)OCC(=O)N2CC(=O)Nc3ccccc32)c1 | inactive |  |
| Cn1nnnc1SCC(=O)N1CCN(Cc2ccccc2)CC1 | inconclusive: -15.6% [fluorescent] |  |
| COc1cc(C(=O)Nc2nnc(-c3sccc3C)s2)cc(OC)c1OC | inconclusive: -8.6% |  |
| CCOC(=O)CN=C1CC(C)(C)CC2=C1Sc1ncnc(N(C)C)c1N2 |  | inconclusive: 12.6 µM [rising, single point] |
| N#Cc1c(/N=C/c2ccco2)sc2c1CCCCC2 | inactive |  |
| COC(=O)c1c(-c2ccncc2)csc1NC(=O)c1ccoc1C |  | inconclusive: 20 µM [rising, single point] |
| N#Cc1c2c(c(N3CCN(c4ccccn4)CC3)n3c1nc1ccccc13)CCC2 | inconclusive: 11.6% |  |

| SMILES | activity change, negative = inhibition | Potency |
| --- | --- | --- |
| COc1ccc2cc(CN(C(=O)Nc3ccccc3OC)C3CCCC3)c(=O)[nH]c2c1 | inconclusive: 25.1% |  |
| COc1ccc(C)cc1Nc1cc(C)nc2nc(C)nn12 |  | active: 10 µM |
| O=C(Nn1cnnc1)C1Cc2ccccc2CN1S(=O)(=O)c1ccc(F)cc1 (centres undefined) | inconclusive: -8.36% [at 7.6 µM] |  |
| NC(=O)c1c(-c2ccccc2)oc2ccc(O)cc12 | inconclusive: 7.21% |  |
| CCOC(=O)C(Oc1ccc(=O)n(-c2ccccc2)n1)C(C)=O (centres undefined) | inconclusive: -12.8% [at 7.6 µM] |  |
| Cc1nnc(SCc2cc(=O)[nH]c(Nc3nc(C)c4ccccc4n3)n2)s1 |  | inconclusive: 7.94 µM [rising, partial curve, poor fit] |
| C=CCn1c(=O)c(C(=O)Nc2ccccc2O)c(O)c2ccccc21 | inconclusive: 26.9% |  |
| COc1ccccc1S(=O)(=O)Cc1ccc(C(=O)N2CCN(c3ccccc3)CC2)o1 | inactive |  |
| N#Cc1cc2c(nc1SCC(=O)Nc1nccs1)CCCCC2 |  | inconclusive: 12.6 µM [rising, partial curve] |
| N#CCCn1c(=O)c(-c2ccc(Cl)cc2)nc2cnc(N3CCOCC3)nc21 |  | active: 5.01 µM |
| C[N+](C)(C)CCC(=O)c1cccc2ccccc12 | inconclusive: -27.9% |  |
| COc1ccc(C(C(O)C(=O)c2c[nH]c3ccccc23)N2CCN(c3ccc(OC)cc3)CC2)cc1 (centres undefined) |  | inconclusive: 3.16 µM [falling, full curve] |
| Cc1cc(C(=O)CSc2nnc(-c3cccs3)o2)c(C)n1-c1ccccc1 | inactive |  |
| O=C(NNS(=O)(=O)c1ccccc1)c1cccnc1 | inconclusive: -4.72% [at 7.6 µM] |  |
| N#Cc1c(N)nc(SC2CCCCC2=O)c(C#N)c1-c1ccco1 (centres undefined) |  | active: 10 µM |
| Cc1csc(NC(=O)CSCC(=O)Nc2ccccc2)n1 | inactive |  |
| CCOc1ccccc1-c1nc(-c2ccc(NC(=O)c3ccc(Br)o3)cc2)no1 | inconclusive: 0.0156% |  |
| COCCn1c(=O)c(-c2cc(F)cc(F)c2)nc2cnc(N3CCNCC3)nc21 |  | inconclusive: 0.631 µM [rising, full curve] |
| Nc1ccc(-c2nc3c(Cl)cc(N)cc3[nH]2)cc1 | inconclusive: -26.9% |  |
| COc1cc(NC(=O)CSc2nc3ccccc3c(=O)n2C)ccc1NC(=O)c1ccco1 | inactive |  |
| Cc1noc(C)c1C(=O)N1CCC[C@@]2(CCN(c3ccccc3)C2)C1 | inactive |  |

| SMILES | activity change, negative = inhibition | Potency |
| --- | --- | --- |
| COCCOC(=O)c1c(C)oc2ccc(OC(=O)c3ccc4c(c3)OCO4)cc12 | inconclusive: -29.3% |  |
| CC(C)C[C@H](NC(=O)NCc1ccccc1Cl)C(=O)O | inconclusive: 9.98% |  |
| Cc1cc(C)c(O)c(Cc2cccc(Cc3cc(C)cc(C)c3O)c2O)c1 | inactive: 8.6% [at 7.6 µM] |  |
| O=c1oc2ccccc2c(O)c1C=NCc1ccccn1 | inactive |  |
| Cc1ccc(S(=O)(=O)N2CCN(C(=O)c3cc(=O)[nH]c4ccccc34)CC2)c(C)c1 | inactive |  |
| COc1ccc(-c2nc(-c3cccc(C)c3)no2)cc1OC |  | inconclusive: 1.26 µM [rising, partial curve] |
| Fc1ccc2[nH]c3c(N4CCN(c5ccccc5)CC4)ncnc3c2c1 |  | inconclusive: 25.1 µM [falling, single point] |
| O=C(NCc1ccco1)c1cc2cc3ccc(Cl)cc3nc2o1 |  | active: 2 µM |
| O=C(CCSc1ccccc1)NCCSc1ccccn1 | inactive |  |
| CCc1nc(N)c(C#N)c(-c2ccncc2)c1C |  | inconclusive: 10 µM [rising, partial curve] |
| CC(=O)N1CCC(C(=O)Nc2nc(-c3ccccc3)ns2)CC1 |  | active: 10 µM |
| COc1ccc2[nH]c(=O)c(CN(C(=O)c3ccccn3)C3CCCCC3)cc2c1 | inconclusive: 10.7% |  |
| CCOP(=O)(c1c(F)c(F)c(F)c(F)c1F)C(O)c1ccccc1 (centres undefined) | inconclusive: -1.34% |  |
| O=C(COC(=O)c1cccc(S(=O)(=O)N2CCc3ccccc3C2)c1)NCc1ccco1 | inconclusive: -27.6% |  |
| Cc1ccc(C(=O)NC2CCCc3ccccc32)o1 (centres undefined) | inconclusive: -26.3% |  |
| CCCCOc1ccccc1-c1cc(C(=O)O)[nH]n1 | inconclusive: -8.26% |  |
| COc1cc(C(=O)Oc2c(CN3CCOCC3)cc(Cl)c3cccnc23)cc(OC)c1OC |  | active: 7.94 µM |
| CCOc1ccc2noc3c2c1C(=O)c1ccccc1-3 |  | inconclusive: 6.31 µM [rising, partial curve] |
| Clc1cccc(-c2nc3nc4ccccc4nc3n2Cc2ccco2)c1 |  | inconclusive: 10 µM [rising, single point] |
| CC1CCC(NC(=O)CN2C(=O)C3CCCN3c3ncc(Cl)cc32)CC1 (centres undefined) | inconclusive: 19.3% [fluorescent] |  |
| Cc1cc(NC(=O)CSc2nc3cc4c(cc3c(=O)n2CCc2ccccc2)OCO4)no1 |  | inconclusive: 25.1 µM [rising, single point] |
